Data from the supplement of paper PMC11417369.
Some of the results follow.

test system: PfAP2-HC AP2 domain (GST-tagged); assay: gcPBM binding intensity (ln(normalized median fluorescence intensity)); higher = stronger DNA binding
Method in brief: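 An Agilent 4 × 180k array carrying primer-extended double-stranded 36-bp intergenic genomic probes and negative controls received GST-tagged P. falciparum DNA-binding domains expressed in E. coli, about 25 μg on average, for 1 h. The binding buffer contained 1× PBS, 1% milk, 0.2 mg/ml BSA, 0.5% salmon testes DNA and 0.03% Triton X-100. Binding intensity is the top Masliner-normalised natural-log median intensity across replicate spots of either probe orientation, read after Alexa488 anti-GST antibody staining and a 488 nm scan.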

Point of comparison: “TTTTTTTTTATCAAATGTACATATATATAATAATAA [XGTACX_site3941]”, “gcPBM binding intensity (ln)” value 9.25. Against it:
- TTTTATAATTTCTTCTGTACATATATATGAAAATAT [XGTACX_site74] — higher, 9.4
- TCAACCAAAACATAAGCATGCAATATATTTTTATAC [TGCATGCA_site560] — higher, 9.59
- TATTCTAAAGAAATTACACACATGCAATGAAAAAAA [CACACA_site6895] — higher, 9.74
- AAAAATAAACGACAGTGTACTAAATATTTAATTTTC [XGTACX_site3580] — higher, 9.57
- CAGGGCAGGGGGAAGGGTACACATAAAAGAAAATAA [XGTACX_site172] — higher, 9.9
- TATAAATATATATTTTGTACTTAATATAAATTTATA [XGTACX_site7996] — higher, 9.48
- ATACAAATATACTTTTGTACGAAGAAATATATATAT [XGTACX_site3912] — higher, 9.68
- ATACAATTTATTTTAACACACGAATGAATTGATTAT [CACACA_site4160] — higher, 9.65
- GGTTCATATCTTAACACACACATACATATTATAGAT [CACACA_site7392] — higher, 10.1
- TAAAGAAACTATTCAACACACGGTCTAATTATTACA [CACACA_site1064] — higher, 9.72
- ATAAAAAAAATAAAAAGTACAAAAAAAAAAAATGGA [XGTACX_site136] — higher, 10
- TTTTGAAGTAACAAATAAATAAATAAATATATAAAA [GTGCAC_negctrl_site517] — higher, 9.48
- ATTCATTCATATGTTACACACACACCGACACATAAA [CACACA_site5749] — higher, 10.4
- TATTAAACTGGACACACACACACACCCATATATAAA [CACACA_site4579] — higher, 11.2
- TTTTGTTACTTTTATGTGCACTTATAAAACGAACTA [GTGCAC_site9551] — higher, 9.58
- GACTTTTCAATTTTTCGTACGTATAAATTGTATACA [XGTACX_site1488] — higher, 9.71
- TTTTTATTGTTGTACTTATATTATTTTATTATTAAA [GTGCAC_negctrl_site200] — higher, 9.72
- CTAATATATATCAATTGTACATATTGAATAAGAACA [XGTACX_site4541] — higher, 9.64
- AAAAAAAAAAAAAAATGTACCCATATATAAATATAT [XGTACX_site4061] — higher, 9.51
- AAAAAATGGATGATCACACACTTCATAAAAATTGCA [CACACA_site5256] — higher, 9.78
- TTTAATTATAAAACGTGTACATAATTATAATTACAT [XGTACX_site2206] — higher, 9.73
- ATCATTTGCTCACGCACACACACATAAAAAGAAAAA [CACACA_site4349] — higher, 10.2
- ATTATGTACAAAATGGTGCAATATTATACATATATA [GTGCAC_site9468] — higher, 9.7
- AAAAATAGTATAAGTAGTACAACTGAAAAGTTATGT [XGTACX_site7488] — higher, 10.1
- AAAATAATCACATATTGTACAAAAAAATTTATTAAA [XGTACX_site3239] — higher, 9.76
- TATATTAATATGAAAAGTACACATTCTATATATATA [XGTACX_site929] — higher, 9.54
- ACATAATTTGATAATACACACAAATAATCTAAAATT [CACACA_site129] — higher, 9.8
- TTTATTATCTTATTCACACACATATATAAATATGTA [CACACA_site7369] — higher, 9.87
- AAAAAAAAAACATACACACACACAAATATTTATATA [CACACA_site437] — higher, 10.6
- AACATAATAAAAAAACGTACATAATTTTATATACAT [XGTACX_site6602] — higher, 9.75
- ATATATCCAATATATATATATATATATATATATATA [CACACA_negctrl_site160] — higher, 9.55
- ACATTCATAAAAAAAAGTACATTTTTTATAAAAGAA [XGTACX_site6197] — higher, 9.53
- TTGTTAAATATTTATAAAATGAATTTAAAATGTACT [CACACA_negctrl_site665] — higher, 9.32
- AAGAAAAAATGATGAATAGAGATCAAATCTATATAT [TGCATGCA_negctrl_site29] — higher, 9.65
- ATAATATAGAAACACACACACATATATATATACATT [CACACA_site555] — higher, 10.7
- TTTATATATAAATATATATATATATATATATATATA [TGCATGCA_negctrl_site121] — higher, 9.33
- TAGTTTTTATATAGCACACATATTGTGATTATGTAT [CACACA_site1196] — higher, 9.77
- AAATTATGTGCCAATACACACACACCGATATATATA [CACACA_site8050] — higher, 10.3
- TTCTTAGATTGTACAGTACACACCTTTAGAATGTTA [CACACA_site212] — higher, 9.77
- AATTCATTTTACCCATGTACACAATTATATTTTATA [XGTACX_site4127] — higher, 9.67
- TACTACCACGGACATGCATGCACATTATTACTCTAA [TGCATGCA_site313] — higher, 9.86
- ATATATATATGTTTGTGTACTTATGATATCATATAA [XGTACX_site3276] — higher, 9.68
- AATATATATATATATATTTTTGTTAGAATATGGAAT [GTGCAC_negctrl_site434] — higher, 9.62
- TTAAAATAGCTAGTTTGTACATAAAATATATTACTT [XGTACX_site202] — higher, 9.6
- TAAATAAATAAAAATAGTACATAATTATTATTATTA [XGTACX_site4981] — higher, 9.59
- ATATATATGTATGTATGTACACACAAAAAATGGAAT [XGTACX_site7879] — higher, 10.4
- TACAAAATAAATGGAACATGCAAAAAAATTGATTAA [TGCATGCA_site790] — higher, 9.76
- AAAAAAAAAAAAAAAACACACATTTTAAGAAAAAAA [CACACA_site2926] — higher, 9.7
- ATATGCTATTATATATGTACACACCAATTTATTTAT [XGTACX_site8364] — higher, 9.89
- ATAGAATATTAATAATTAAAAATAAAATAAAATAAA [CACACA_negctrl_site1810] — higher, 9.7
- TATTTAATTATTTGTAGTACGATTAATATTTAATGA [XGTACX_site3553] — higher, 9.53
- CTTAATAAGAATAAATGTACAAGGGATAAAAAATTT [XGTACX_site3213] — higher, 9.79
- TTAATTAATTTTTCAGTGCAAATAAAAAATATTTAA — the same, 9.25
- CAAAAGTAAGCACGCACACACAACATGAAATAAACT [CACACA_site6223] — higher, 10.6
- TATCTTATAAACTCTGCACACATAATATATTAAATG [CACACA_site8587] — higher, 9.93
- TATACGCAGAAACACACACACATACACCCACATACA [CACACA_site1723] — higher, 10.6
- AACGTTCATAATTATTGTACCCTCATTTTATTTTTT [XGTACX_site503] — higher, 9.87
- AAAAATTTTAATTAGGAACACACATATATATATATA [CACACA_site9016] — higher, 9.86
- ATAAAACGAAGATGTTGTACGTACAAATAAATGAAT [XGTACX_site2472] — higher, 10.1
- ATAACTTTTTAAAAGACACACATAAGAAAAACAAAA [CACACA_site723] — higher, 9.72
- TATATTAGAAAGGATACACACATATATATATATCTA [CACACA_site570] — higher, 9.87
- ATAAAAATATTGTCTAGTACATATTTATAATAAAAA [XGTACX_site7523] — higher, 9.44
- AGAAATATATCTATTTGTCCGTATATTCATATTTAT [XGTACX_site8427] — higher, 9.74
- AGATTGGAACATTAAAGTACTTACTTTTTTTTTTTT [XGTACX_site8017] — higher, 9.51
- GATTACTAGAAATGCACACACTGATAAAATAAGGAA [CACACA_site6131] — higher, 10.4
- TATATATATGAGTATACACACCTGATAAAGGTATAT [CACACA_site5462] — higher, 9.8
- TTAAACTTGAAACACACACACACACCGATATAAAAA [CACACA_site4578] — higher, 10.5
- ATATATTTAAACAAAAGTACAAATCATAAATTCAAG [XGTACX_site3633] — higher, 9.58
- TATATATTCTTTTAATGTACATATTGTATTATATCC [XGTACX_site4501] — higher, 9.77
- TCTTTATCTTCTTATACACACATTTATTAAAAAAAA [CACACA_site445] — higher, 9.57
- TGACATAAAAAATATACACACTATAATATTTATACT [CACACA_site6776] — higher, 9.82
- ATTTTTTAAAAAGTAACACACACTCTTATATATAAT [CACACA_site9206] — higher, 9.91
- ATTTTTTTTTTTTTTTTTTTTGCACCATAAAATAAT [CACACA_negctrl_site1324] — higher, 9.48
- TATATACTCAAACACACACACACATACACAGACATA [CACACA_site5025] — higher, 10.7
- ATTTTGACATTATATAGTACATATAATTTACATTTA [XGTACX_site3024] — higher, 9.68
- TATATATATATGTGTACACATTTGTCAGATTATATA [CACACA_site4813] — higher, 9.79
- TATTATTAATATGTATGGTTGTAATCTGTGTCTCCT [TGCATGCA_negctrl_site190] — higher, 9.92
- AATATAATTTTTTATTGTACAAAAAAATTATTTAAT [XGTACX_site3248] — higher, 9.41
- AAGAACAAATATGAGGTGCAACACAATATATTATTA [GTGCAC_site9965] — higher, 9.86
- AATAAGTATACACATACACACACACCCAAAAAAAAA [CACACA_site8034] — higher, 11
- CATTTTGTAAGATATGCACACATGGATCATATTTTA [CACACA_site423] — higher, 9.66
- TTTTACAATGAAATATGTACTTAAATGTCCAAATTC [XGTACX_site781] — higher, 9.5
- TATATAAGAATATATACACACATATATGTATATATA [CACACA_site2178] — higher, 9.71
- AAAAAGAAAAATTGCACACACTTATAAAAATATACG [CACACA_site6074] — higher, 10.1
- GTTAACAAATAATGCACACAAATGGATAAAATTATA [CACACA_site3725] — higher, 9.9
- TTAACCATTAATTCTCTACACACTTTTATTTTATTT [CACACA_site8522] — higher, 9.93
- ATGGGTATTAAGTGTACACATATAGTGTATTTTGTT [CACACA_site4452] — higher, 9.85
